This note sets out measurements from PMC6911104.

Chains of the proteins cited; added tags and fusions are not shown. Lines headed by an entry give the natural chain unless they say otherwise; changes in a name come on top.
UniProt P45973: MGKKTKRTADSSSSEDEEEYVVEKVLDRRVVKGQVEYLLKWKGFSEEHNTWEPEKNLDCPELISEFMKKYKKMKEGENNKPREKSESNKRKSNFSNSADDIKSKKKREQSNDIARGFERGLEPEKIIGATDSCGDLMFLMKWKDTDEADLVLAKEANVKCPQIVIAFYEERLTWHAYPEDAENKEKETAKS
UniProt O60934: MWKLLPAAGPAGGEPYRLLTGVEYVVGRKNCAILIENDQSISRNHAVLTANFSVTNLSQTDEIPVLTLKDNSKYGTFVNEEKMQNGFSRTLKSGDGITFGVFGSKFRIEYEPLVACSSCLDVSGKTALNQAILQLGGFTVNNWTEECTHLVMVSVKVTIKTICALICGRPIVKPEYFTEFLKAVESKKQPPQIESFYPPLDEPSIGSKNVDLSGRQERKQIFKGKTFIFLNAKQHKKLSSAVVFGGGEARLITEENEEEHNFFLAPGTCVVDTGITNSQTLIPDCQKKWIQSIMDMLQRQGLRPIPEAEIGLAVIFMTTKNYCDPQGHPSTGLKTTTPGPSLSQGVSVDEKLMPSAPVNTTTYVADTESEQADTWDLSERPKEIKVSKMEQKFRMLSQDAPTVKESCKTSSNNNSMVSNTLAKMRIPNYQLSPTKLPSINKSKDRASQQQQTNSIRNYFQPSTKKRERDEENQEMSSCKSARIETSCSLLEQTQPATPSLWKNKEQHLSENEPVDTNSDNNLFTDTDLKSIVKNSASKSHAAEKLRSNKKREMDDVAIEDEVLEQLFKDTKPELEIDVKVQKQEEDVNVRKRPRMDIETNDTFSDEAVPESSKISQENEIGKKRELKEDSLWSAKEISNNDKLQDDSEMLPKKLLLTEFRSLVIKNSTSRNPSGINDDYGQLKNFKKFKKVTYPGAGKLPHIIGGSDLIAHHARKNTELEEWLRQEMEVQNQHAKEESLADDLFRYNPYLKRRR

Experiment [1] addresses HP1α (human, endogenous) (human (endogenous in MRC5 and NBS fibroblasts)) (UniProt P45973). As to the kind of experiment: co-IP; whole-cell lysates of human fibroblasts (MRC5 untreated or 5 Gy X-rays, 0.5 h; NBS cells; NBS cells expressing NBS1 S343A); IP with anti-HP1α or anti-NBS1 (A-2 N-terminal, B-5 C-terminal), protein A/G agarose, 4 °C, washes in NP-40 lysis buffer.
Experiment [2] addresses NBS1 (human, endogenous) (human (endogenous in MRC5)) (UniProt O60934). The description is as above.
For experiment [3] the target is unchanged. As to the kind of experiment: condition: only lysate treated with 10 U alkaline phosphatase; co-IP; human whole-protein lysates incubated 1 h at 37 °C with 10 U alkaline phosphatase before immunoprecipitation (anti-HP1α IP for NBS cells, blot with C-terminal anti-NBS1).
Experiment [4] deals with HP1a-FLAG (Drosophila melanogaster) (UniProt P05205). As to the kind of experiment: co-IP; extracts of S2 cells overexpressing HP1a-FLAG; anti-FLAG M2 affinity agarose, 2 h at 4 °C, IP buffer (50 mM Tris-HCl pH 7.5, 150 mM NaCl, 1% Triton, 1 mM EDTA); blots for endogenous Rad50, Mre11, Nbs.
Experiment [5] deals with T1, GST-HP1a^CSD (Drosophila melanogaster) (UniProt P05205).
T1 sequence: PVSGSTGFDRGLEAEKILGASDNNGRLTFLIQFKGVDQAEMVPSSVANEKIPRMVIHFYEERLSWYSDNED
The experiment is described as follows: pull-down; GST-HP1a proteins on glutathione Sepharose beads (4 μM) incubated with 30 μg extract of S2 cells transfected with Nbs-HA, IP buffer with 10% glycerol, 2 h at 4 °C; Nbs detected with anti-HA, Rad50 and Mre11 with specific antibodies; only the target purified.

Experiment [6] has as its target GST-HP1a^I191E (Drosophila melanogaster) (UniProt P05205). The experiment is described as above.
Experiment [7] concerns the target GST-tagged full-length (FL) HP1a (1-206) (Drosophila melanogaster) (UniProt P05205). Described as above.

Results are given in words; binding and its absence hold for the method and conditions named. Binding seen in cells or lysates may run through a third protein. Some entries that bind do so weakly or less than the wild type. For some assays here: Where a sequence is shown, tags or fusion partners need not be part of it.

NBS1^S343A (from UniProt O60934 1-754): the binding entry in experiment [1] is listed as “no binding”.

Turning to “HP1α (human, endogenous) (from UniProt P45973 1-191)”, the binding result in experiment [2] is “binds”; in experiment [3], “no binding”.

B1: Rad50 (Drosophila, endogenous) (protein, UniProt Q9W252 1-1318)
chain: MSSIESLSIQGIRSFGTYADDLQSIKFSSPVTLILGENGCGKTTVVECLKYALTGECPPGSDRGKSFVHDPKIFGLNEVLAQIKMQVRDRRGAQVSICRTMKVSKKRNKMSFETMDSTINFLTGAGQSKREKQDSLSGRSVDIDVAISDFMGVSKAIINNVLFCHQEDSSWPLDESKKLKEKFDAIFGITEYNKALDKIIKLRKEAMEELKIKEANIKHVAYLKQEMEVKTLNLQKAQRKCDAIKAQCSECEEEMKPIEARLVEIRNVEFEIGKYQAQKVEMDTKHKNCKDQISTLTLKIKKPFRGTLDELDQEISNFDQRMLEMRQKRTEVEGDLSQIKRSSVAEQEKLGTQDRKHCLAKQRHQSELACRAQLLKRVKEFCRELHIPIDCDLVEQPEKMGEVLRDIEAMIITKHCEITEIVEQNEKADRSRQVKIDELRIELTKSEQSVTAQEKQRESSKRESETLGVEIKKIETSMQDLKKLEKEINEVNELYESATKNIDQQAIKDAIARKKASIAENQIQFKKLDEQLTFLGSMAKLVAECSLKQKELDKKNQEVHRVRSRHSDHFGKLFKEPITCNYRRSMQVVYEKLRREIQELNEKANTQKLKEQSYEIKRKNLISDISRMEKELKDSEELIYQKCRSTPYDDLLERSKTTISKLQFDHGALKSSEALYKKYIQKMDEEPSCPLCHHNMTSDEACDLTSELTDEIQKLPDNITRAEKALKAEQIKYENLLQLKPTILKVKELKDSLPQKKEELKKVEELLGDSVSEYETLIALIGEPTHNMELANSMMGDMSLLDEALKDSARLTKDLDLQKGQLPASYDSSVSMDDLQAEKSKVSKELETERKELESAQNAVQQQMDALNRLREKKNSLKDRQIHLREGLQSLPQLKERLEKLNSFLTTVASEISELKAKIQPLKLNLRAAIEEKERLKKSESEKLAQLNSKYNSYKSTDHDIQRLNKEAEDYAKLDLRNEIKKLDEIIMASKDKLRKLEAEISLKTDELETIKTECSNQQTVERDLKDNRELKQLEDKEAKLRESCQVLDKQLGNLDFHSVSKEKVNLTKQRDKATVRKGELLGQLGEIHSQVNKLQREIDEPRFKESLKNFRKANYEIEVTRLCIEDLGQYRLALEWALIQFHSEKMEMINRLIREYWRKIYRGNDIDYIQVKTDEVSSDASADRRKTYNYRVVQSKNYSEIEMRGRCSAGQRVLASLIIRLALAETFSSNCGVLALDEPTTNLDRANINSLCEALNCIVEERQSQSNFMLIIITHDENFVSSLGKITSYHRVFRNEECKSVIRRVEAGPSKKALIDQ
Regarding B1, the binding entry in experiment [4], in experiment [5], in experiment [6] and in experiment [7] was “binds” in each case.

B2: Nbs (Drosophila, endogenous) (protein, UniProt Q9VT40 1-818)
chain: MFVLTKDDEKFVLFPGKKVYTIGRLATDLIVAQDLSISRNHAQLLIQTEADGDDTLHIEDLGSRYGTFIFPKNSQKPRKVPAKTSTPLPVGTRLRFGANMSIWQVTQLKLVTTVSALTRSEVQELTKMLEPMGGTVTSNWTEECSHLTMNEVSVTVKLLHAMLENKPIVTFPYWRKMLQAAQSIHVKEGWPQPEDYQPTNIDVTWRPERTRLFAGKTFVFMNRKHFDMYGSVVQKAGATCKDINSGVRKTFLTKSDVIVIQYVPSSQSQATESINSIQDRYILEQNGRRIIQEYEIGMALIHCSITEFCNPTHKFISDSLPTTESVTSSMAFNSSIIVPNTERHSAQSNATPISELVVPESIECEMEQDASKPHSEDQASLRKRSHASTVDSSDEEKKSTLSKRAKSDIATKLTMKSKNAILLDSSLEEDVTPAPAPAPVQRVTRQSKAIAEEKSVHPPVPAASKHITRKTKQVFCVDSSDEENENARKPKETPAPTIPSMAKKKTEAPVATRISPRLNGKSLATNITNQPADKHAVPAKRPVLSVASSDEEDEGDLFQFRKSPQKPAETVVQPRIAGKGNAPARISVVDFLEKSQAQEPAPVPPQLESQSQTQPRKRLRLELLNESDSDDCDNLFNFADSKKKRKTQEAQRNDDSTDGLFNFNSERPSDHDDEDSRLTEPFVPETESKKQSKYIVAPRRDRPKKVDISGWLSCSRLNDNIKSEIDADSVKMETSIKADPDEEQWLAAMKDSIEVRMCNLNIVIRSQEEVDASLEDSVNKHGGRKNFKKFVKTKNPHPQKRIVALKSLRLADGMVTCV
As to B2, in experiment [4], the binding entry is “binds”.

B3: Nbs-HA (protein, UniProt Q9VT40 1-818)
chain: B2 chain
For B3, the binding result in experiment [5] and in experiment [7] was “binds” each time.

B4: Mre11 (Drosophila, endogenous) (protein, UniProt Q9XYZ4 1-620)
chain: MNGTTTAEQDADNVIRILVATDNHLGYGEKDAVRGEDSFTAFEEILELAVSEDVDMILLGGDLFHDAVPSQNALHKCIELLRRYTFGDRPVSLEILSDQGQCFHNAVNQSVNYEDPNLNIAIPVFSIHGNHDDPSGFGRLSSLDLLSTSGLVNYFGRWTDLTQVEISPVLMRKGESQLALYGLSHIHDGRLARLIKDFKVKFNCPENVANGEDGNESKEEEDWFHLLVVHQNRADRGPKNYLPEDLLPSFLHLVIWGHEHDCRIEPEENAKKRFYVSQPGSSVPTSLSEGEAKKKHVGLLEIYKGKFKLKPLPLETVRPFVYESVVLADHADELGLVEGDASTKVFKFAQERVEAMIERAVAQHTGHPKQPTLPLIRLRLLYTDESCMFNAIRFGEMLSTRVANVQDVVQFSKVVKRTKTEAVNLDKEALRRALEADNATRVEELVDRYFEEAKSNKPLKLFHSKALAEMTYRLLEQRDADAAENIVKFYKEKAVDHLMEAMPNDENIDEELERFRALHKHGDLLKMLDTQGLKVKKEEKSMSVLGSEVNVSTAPATGRGAARGRGTARTRAGATAATRGKGQLDVTVSSTRTSGRQQTLLSSLMGSRNTASYVISDDSD
With B4, the binding entry in experiment [4], in experiment [5], in experiment [6] and in experiment [7] was “binds” throughout.
